Where a chain is given by its changes, count along the chain named.
Tests used:
[1] = biological target: T1, recombinant human PCSK9 with a histidine (His)8 C-terminal tag (human, UniProt Q8NBP7 31-692, biotinylated in vitro (EZ-link Sulfo-NHS-biotinylation kit) where the assay names biotinylated PCSK9); assay: SPR (Biacore 3000), EGF-Fc captured by anti-human Fc, PCSK9 injected, 1 mM CaCl2
T1 construct: also called rPCSK9; biotinylated PCSK9

[2] = biological target: T1, recombinant human PCSK9 with a …; assay: SPR (Biacore 3000), EGF-Fc captured by anti-human Fc, PCSK9 injected, 10 mM EDTA
[3] = biological target: T1, recombinant human PCSK9 with a …; assay: biolayer interferometry (Octet RED 384), EGF-Fc on Fc biosensor, PCSK9 0-500 nM, 1 mM CaCl2, steady state fit
[4] = biological target: T1, recombinant human PCSK9 with a …; assay: competition ELISA: Fc fusion protein mixed with biotinylated PCSK9, added to rLDLR-coated plate
[5] = biological target: T1, recombinant human PCSK9 with a …; assay: biolayer interferometry; end of the range tied to EGF52-Fc by Table II (900/120)
[6] = biological target: T1, recombinant human PCSK9 with a …; assay: cell-based or functional assay

T1 sequence (Q8NBP7 other isoform, or with tags, fused parts or gaps limits assumed): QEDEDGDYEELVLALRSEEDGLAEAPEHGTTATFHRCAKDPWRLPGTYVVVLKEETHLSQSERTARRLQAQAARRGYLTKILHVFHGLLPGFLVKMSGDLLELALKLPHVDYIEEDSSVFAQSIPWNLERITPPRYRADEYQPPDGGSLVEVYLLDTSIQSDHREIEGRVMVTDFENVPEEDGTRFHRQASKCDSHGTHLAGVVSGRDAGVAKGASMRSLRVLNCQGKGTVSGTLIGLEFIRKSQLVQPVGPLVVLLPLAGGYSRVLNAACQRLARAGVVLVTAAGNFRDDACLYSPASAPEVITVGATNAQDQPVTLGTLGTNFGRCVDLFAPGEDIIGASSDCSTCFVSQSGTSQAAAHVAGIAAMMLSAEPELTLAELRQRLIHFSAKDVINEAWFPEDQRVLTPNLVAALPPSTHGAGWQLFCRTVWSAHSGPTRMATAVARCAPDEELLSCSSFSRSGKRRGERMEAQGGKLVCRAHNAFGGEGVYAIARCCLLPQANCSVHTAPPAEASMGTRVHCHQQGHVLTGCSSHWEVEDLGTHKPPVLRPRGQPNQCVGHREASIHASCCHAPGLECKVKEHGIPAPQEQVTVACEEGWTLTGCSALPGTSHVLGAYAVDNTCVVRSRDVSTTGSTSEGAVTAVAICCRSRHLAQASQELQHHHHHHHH

B1: EGF59-Fc fusion protein (Fc fusion)
chain: GTNECLDNLGGCSHVCRKLKIGYECLCPDGFQLVAQRRCEGGGSGAAQVTNKTHT
modifications: The EGF(A) domain has three disulfide bonds (Cys I-III, II-IV, V-VI). In the assay the protein was a homodimer joined through the IgG1 Fc, which is not given here.
notes: not shown: Fc domain of human IgG1 (C222-K443 as printed, which is Cys226-Lys447 in EU numbering)
Binder B1 has a Kd [1] of 111 nM, a Kd [2] of 135 nM and a Kd [3] of 50 nM.

B2: EGF52-Fc fusion protein (Fc fusion)
chain: B1 chain with D7S, V15I
modifications: Three disulfide bonds within the EGF domain. The Fc fusion is a homodimer; one chain is given.
notes: not shown: It is probably EU C226-K447, 222 residues, following the linker's THT
For B2, the Kd [1] was 113 nM, the koff [1] was 0.02 s⁻¹ and the kon [1] was 181000 M⁻¹ s⁻¹. It also gave a Kd [2] of 238 nM, a koff [2] of 0.022 s⁻¹ and a kon [2] of 90000 M⁻¹ s⁻¹. For the same binder, the Kd [3] was 120 nM, the IC50 [4] was 0.7 nM and the “fold increase of affinity against EGFwt-Fc” value [5] was 7.5 to 33 fold.

B3: EGF66-Fc fusion protein (Fc fusion)
chain: B1 chain with D7A, V15I
notes: also called EGF66-Fc (MUT); not shown: Fc domain of human IgG1 (C222-K443)
Binder B3 has a Kd [1] of 71 nM, a Kd [2] of 72 nM and a Kd [3] of 56 nM. For the same binder, the “EC50: concentration that restored LDLR levels on the HepG2 cell surface to 50% of control” value [6] was 1.6 µM.

B4: EGF75-Fc fusion protein (Fc fusion)
chain: B1 chain with D7K, R17K
modifications: Three disulfide bonds within the EGF domain. The Fc fusion is a homodimer; one chain is given.
notes: as for B2
B4 was tested, and the Kd [1] was 121 nM, the Kd [2] was 224 nM and the Kd [3] was 27 nM.
